# The campaign covered roughly 150,000 compounds. About 540 (0.36%) showed an effect of 50% or more. Some of the results follow.
# Test system: Plasmodium falciparum
# Assay: Primary screen in NF54 nanoGlo assay, in single point, at 2uM, 72h; a lower Z score goes with more inhibition
# Assay type: functional, Erythrocyte
# Details: timepoint 72 hour
Structure (SMILES),% Inhibition [%],Z score
N#Cc1ccc(CN2CCN3C(=O)c4ccc(-c5ccccc5)cc4OCC[C@@H]4CC[C@H](O)[C@@H](CNC(=O)[C@@H]3C2)O4)cc1,10,-1.35
CCOC(=O)N(C)CC(=O)N(CC#N)Cc1ccccc1,7,-0.88
CCc1nnc2c(=O)n(CC(=O)NCC3CCCCC3)c3cccnc3n12,0,-0.01
CCOC(=O)CCc1c(C)nc2ncnn2c1N1CCN([C@@H](C)c2ccccc2)CC1,-1,0.12
O=C(c1csc2ccccc12)N1CCn2c(nnc2C(F)F)C1,-1,0.24
O=C(c1ccc2c(-c3ccccc3)onc2c1)N1CCN(C(=O)c2ccco2)CC1,-19,1.76
CN1CCC[C@@H](c2nc(Cc3c(F)cccc3Cl)no2)C1=O,-10,1.19
COC(=O)c1cc(C)ccc1OC(=O)CCN1CCCC1=O,1,-0.17
CCCn1c(C)cnc1[C@H]1CCN(C(=O)Cc2cccc(OC)c2)C1,-4,0.62
O=C(NCc1cc(C2CC2)ncn1)c1ccccc1Cl,5,-0.7
O=C(N[C@H]1CCOC[C@@H]1OCCO)c1cccc(C(F)(F)F)c1,-19,2.8
C[C@@H](Cc1ccccn1)NC(=O)Cc1noc2ccccc12,-16,2.08
Cc1ccc(C[C@H](C)NS(=O)(=O)C2CCOCC2)s1,-4,0.77
N#CCCn1cc(C(=O)Nc2nccs2)c(-c2ccc(F)cc2)n1,-6,0.95
Cc1nnc(O)c(CNS(=O)(=O)CC2CCCCC2)c1C,-10,1.34
CCOc1ccc(NC(=O)c2cn3nc(-c4ccc(OCC)cc4)cc3nc2C2CCN(C(=O)OC(C)(C)C)CC2)cc1,21,-1.7
COCC[C@H](NS(=O)(=O)c1ccsc1C#N)c1cccnc1,-2,0.21
CC[C@@H]1Oc2ccc(NC(=O)COc3ccccc3)cc2CN(Cc2ccccc2)C1=O,-4,0.53
CN(C)C(=O)OCCN(C)[C@H]1CCCc2c1cnn2C,-9,1.1
Cn1cnnc1Cc1c[nH]c2ccccc12,-14,2.74
COCCC1(CNC(=O)N2CCCCCCC2)CC1,2,-0.21

Structure (SMILES),% Inhibition [%],Z score
Cc1cc(C)c(NC(=O)c2cccn2-c2cccnc2C)c(C)c1,-16,1.57
O=C(CCC(=O)c1ccc(Cl)cc1)N[C@H]1CCS(=O)(=O)C1,-8,1.57
COc1cccc([C@@H]2C(=O)N(Cc3cn(C)nn3)C(=O)N2C)c1,-5,0.85
Cn1cc(C[C@@H](CO)NS(=O)(=O)c2cc(F)cc(Cl)c2)cn1,-25,2.13
O=C(O)CC1(CNC(=O)CCc2nc(-c3ccc4cc[nH]c4c3)no2)CCCCC1,8,-1.04
NC(=O)c1cccnc1N1CCC(n2cc(-c3ccccn3)nn2)CC1,-21,1.88
CN(C[C@@H]1CC=CCC1)CC(C)(C)S(C)(=O)=O,-11,1.56
c1cncc(-c2n[nH]cc2CNc2nnc(-c3cccs3)o2)c1,-11,1.48
CC(C)C[C@@H]1CN(C(=O)CCCc2c[nH]c3ccccc23)CC[C@]1(C)O,-1,0.17
Cc1nc(-c2ccccc2OC2CN(C(=O)c3cnn(C)c3)C2)no1,0,-0.02
CC(C)[C@H](CO)CNC(=O)c1cc(C(C)(C)C)nc(=O)[nH]1,4,-0.72
Cc1nn(C(=O)N2CCCCC2)c(C)c1CN1C(=O)c2ccccc2C1=O,-8,1.07
Cc1ccn2c(=O)c(C(=O)NCCO)c(O)nc2c1,2,-0.3
Nc1nnc(CCn2cc(-c3ccc(CO)o3)nn2)s1,-14,2.36
Cn1c(=O)ccn(CC(=O)N(Cc2ccco2)C2CC2)c1=O,10,-1.35
Cc1ccc(NCc2cnc3ccnn3c2)cc1OC(F)F,7,-1.25
CC[C@@H](Cn1nnc2ccccc2c1=O)NC(=O)Nc1ccc(C)cc1C,6,-1.13
COc1ccc(-n2cc(-c3cccc(OC)c3)nc2NC(=O)CN(CC(C)C)C(=O)Cc2ccccc2)cc1,-4,0.52
O=C(NCc1ccc2c(c1)OCO2)N1CCC[C@H]1c1ccncc1,-7,1.22
CCn1cc(-c2c(-c3ccccc3)ncn2[C@@H](C)Cc2cnccn2)c(C)n1,-15,1.42
CN(Cc1ccccc1)C(=O)CCC1CCN(C(=O)c2cccc(N)n2)CC1,-15,1.59
